# This is one part of the list.
# Target: T1, OsWOX13 (Oryza sativa, UniProt Q5QMM3 1-267)
# T1 sequence: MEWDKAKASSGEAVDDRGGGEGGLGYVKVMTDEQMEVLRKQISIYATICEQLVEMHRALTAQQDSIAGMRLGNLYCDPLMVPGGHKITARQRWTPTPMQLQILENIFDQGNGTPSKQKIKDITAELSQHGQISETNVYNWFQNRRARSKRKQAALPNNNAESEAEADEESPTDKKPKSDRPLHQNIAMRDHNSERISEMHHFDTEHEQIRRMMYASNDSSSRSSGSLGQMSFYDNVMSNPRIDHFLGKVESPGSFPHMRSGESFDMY
# Experiment: protein-binding microarray (RPBM); PBS, 2% BSA, 51.3 ng/ul salmon testes DNA, 50 uM zinc acetate, 200 nM TF, 25 C, 1 h; high values mean tight binding
# Conditions: protein: recombinant; tags: N-terminal polyhistidine and DsRed monomer fusion (pET32a); label: CyDye5-dUTP incorporated in the synthesized complementary strand; 3' TTTTT single-stranded linker to array surface; dsDNA, one strand shown
# In short: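 Binding signal is defined as the fluorescence intensity of each feature in arbitrary units, read on an Axon 4000B scanner. Transcription factors with N-terminal polyhistidine and DsRed fusions came from E. coli BL21-CodonPlus and were purified on Ni–NTA. They were incubated at 200 nM for 1 h at 25 °C on a custom Agilent array that had been made double-stranded with Cy5-dUTP, with 50 µM zinc acetate present, and the array was washed.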
row,Sequence,binding signal
1,ATAACTTTAATTCGATTTTAGATTGTTACTACATTTTGAGCGGAGTCACCTAGTGCAG,15200 fluorescence intensity (a.u.)
2,TTTATACAACTATTAACTTAATTAATGTTTACCATATTATCGGAGTCACCTAGTGCAG,7160 fluorescence intensity (a.u.)
3,ACATGATTATATGATGCACTATTGTGACACAATGATGAGTCGGAGTCACCTAGTGCAG,21100 fluorescence intensity (a.u.)
4,CATGTTGTTTGAGCAATTTAATTGCCATCTATTTTGAATTCGGAGTCACCTAGTGCAG,6330 fluorescence intensity (a.u.)
5,GACCGGTGATTAGGTTTTCAAGACAATGTTGTATTTTCCTCGGAGTCACCTAGTGCAG,10300 fluorescence intensity (a.u.)
6,CAAATGAACAATCTGATCGAGATGACGACATCTGATCTAGCGGAGTCACCTAGTGCAG,3420 fluorescence intensity (a.u.)
7,CTTAATATGTGTTAAACTTTTCAATGTGTTTCCTATTGAACGGAGTCACCTAGTGCAG,7340 fluorescence intensity (a.u.)
8,TCTAACGTAAAATTTATTATAATAAATATGTGGTTCAAAGCGGAGTCACCTAGTGCAG,5580 fluorescence intensity (a.u.)
9,GACTGTGATCAAGCTAATTTTATGTCGCCATAAATATAGCCGGAGTCACCTAGTGCAG,4000 fluorescence intensity (a.u.)
10,CATGATAGAATAGGCAATAATCTATACCTAGCTATCTTTTCGGAGTCACCTAGTGCAG,14300 fluorescence intensity (a.u.)
11,GAACATATGATTAGCGTGCTGTTATATATTCTGTCAGGTTCGGAGTCACCTAGTGCAG,24600 fluorescence intensity (a.u.)
12,AATCCTTTGTCATTTACTTTAATTTACTGGTACAGTTCCTCGGAGTCACCTAGTGCAG,5650 fluorescence intensity (a.u.)
13,ATGCTAATTTATGCGTGTATGAATAGTAATATAACTAGCACGGAGTCACCTAGTGCAG,15000 fluorescence intensity (a.u.)
14,GATAGATAATAGATAGATAAATGGACACATTTCAGGAAAACGGAGTCACCTAGTGCAG,20400 fluorescence intensity (a.u.)
15,TATATTATTTGTCAATCTTATTGTCAACTTATTAATCATCCGGAGTCACCTAGTGCAG,7160 fluorescence intensity (a.u.)
16,GAAAAGATGATTAGATGAATACAAATAGTATACGATAGCACGGAGTCACCTAGTGCAG,24200 fluorescence intensity (a.u.)
17,AACATTTCATATATACACTAATTGGGCCCACACCGAAACCCGGAGTCACCTAGTGCAG,5810 fluorescence intensity (a.u.)
18,TTCATTAATTGATTATTACTAGTAGGGATGGTTGGTTCAACGGAGTCACCTAGTGCAG,30700 fluorescence intensity (a.u.)
19,AATTTGATTGTATAAACTGACGATTTTAGTTAATTACTATCGGAGTCACCTAGTGCAG,48700 fluorescence intensity (a.u.)
20,CATGCCAATTGATAGTAGAAGCAGTATTAGCTAGCTCTGGCGGAGTCACCTAGTGCAG,4660 fluorescence intensity (a.u.)
21,TTACTAAATTAGTAGATAACATTGTGTGCATATACTCCTACGGAGTCACCTAGTGCAG,17500 fluorescence intensity (a.u.)

row,Sequence,binding signal
1,ATGATGACAAACTTTATATCAAAATTGTAGCCCTCGACGCCGGAGTCACCTAGTGCAG,8150 fluorescence intensity (a.u.)
2,ATTTTATAAATTGAATATTTTACCTTCAATATCCATTGAGCGGAGTCACCTAGTGCAG,26100 fluorescence intensity (a.u.)
3,GAAAATTGAAGTGGTGTTATAAAATTTGGGAACCGGATGCCGGAGTCACCTAGTGCAG,18100 fluorescence intensity (a.u.)
4,GAAATAATCACCAATTGATCACCGTGTATGATTGATCGATCGGAGTCACCTAGTGCAG,40500 fluorescence intensity (a.u.)
5,ACATTAGTTTATATTTAATTGAACTAATTTCTTGTCATAGCGGAGTCACCTAGTGCAG,12800 fluorescence intensity (a.u.)
6,CGTGATGAACAGTATATGAAATTTTCCACACTTTGGCCTGCGGAGTCACCTAGTGCAG,11000 fluorescence intensity (a.u.)
7,AATTTTAATTTATAATTTAGGTATCTCTCGAACTAATTTTCGGAGTCACCTAGTGCAG,13100 fluorescence intensity (a.u.)
8,CGAATTATGTCTATTAACTTAACATTGTGTGTTGGACCGGCGGAGTCACCTAGTGCAG,11500 fluorescence intensity (a.u.)
9,AAATAAATTAATATGTGATATAACACTTTACAATCATATACGGAGTCACCTAGTGCAG,12800 fluorescence intensity (a.u.)
10,TCTGATTGTAGTTTTATAGGGTCTACTTTTCAGTCTTAGACGGAGTCACCTAGTGCAG,33100 fluorescence intensity (a.u.)
11,TTATAGTAACATAATAATTCAATCAGAAAGAACAAGTGGCCGGAGTCACCTAGTGCAG,4910 fluorescence intensity (a.u.)
12,TAATTTACGTAATTATAATTTATTTTGTTATGAGTTATTTCGGAGTCACCTAGTGCAG,16700 fluorescence intensity (a.u.)
13,CAACCGTAATTGCTAGGTACCACCCTGAACACATGATAAGCGGAGTCACCTAGTGCAG,17200 fluorescence intensity (a.u.)
14,CCCATAAATGATGATTGACATGTGGGGCCCCACCACTCTCCGGAGTCACCTAGTGCAG,20100 fluorescence intensity (a.u.)
15,TCATCATCAATCATTTAAAGCCGTAAGGTTACGAATTTTCCGGAGTCACCTAGTGCAG,11000 fluorescence intensity (a.u.)
16,TAACATTGATTGTTATGTCACTTGTCTGTGGATCAACTCTCGGAGTCACCTAGTGCAG,26800 fluorescence intensity (a.u.)
17,AGAGTACTAATTGTTCTATCAATCACTTTTCATTCAAATTCGGAGTCACCTAGTGCAG,14700 fluorescence intensity (a.u.)
18,CACTCATTGACAATTATGGTACTACTAGTATTCTGCAGCACGGAGTCACCTAGTGCAG,19100 fluorescence intensity (a.u.)
19,CCGTGATTAGAAGTAGTACTAACGTGACGTATATATATCCCGGAGTCACCTAGTGCAG,36900 fluorescence intensity (a.u.)
20,CATAATTATTGGGCATTGTCGGGTACACGAAATGTCTCGACGGAGTCACCTAGTGCAG,24100 fluorescence intensity (a.u.)
21,CCACTAATTACACTCCTTCCGGCTCACTTTATAAAGCCACCGGAGTCACCTAGTGCAG,30600 fluorescence intensity (a.u.)

# Source: article PMC7819943, “Rice protein-binding microarrays: a tool to detect cis-acting elements near promoter regions in rice”
